The assay relates to 323965-272-R-J2-PDC complex spheroid growth, % test/control. The assay is described as follows: Anticancer human tumor 323965-272-R-J2-PDC patient-derived pancreatic carcinoma cell line growth inhibition [Asc]. The settings on record: stronger effect = lower value. The method, then: Multicellular complex tumor spheroid response to apoptosis pathway targeting inhibitors Alrizomadlin, Pelcitoclax, and Dasminapant in combination with a variety of drugs and investigational agents in selected tumor cell lines
The MDM2 inhibitor alrizomadlin, the Bcl-2/Bcl-xL inhibitor pelcitoclax, and the IAPs inhibitor dasminapant were evaluated both individually and in combination with standard of care and investigational anticancer small molecules within a complex spheroid model of solid tumors. . Complex spheroids include a stromal component modeled by human endothelial cells (HUVEC) and fibroblasts modeled by human mesenchymal stem cells (MSCs). The concentration ranges selected for each drug and investigational agent were based upon clinically achievable concentrations if the clinical Cmax of the agent was known.
Compounds. The drugs and investigational agents: alrizomadlin (APG-115; NSC831270), pelcitoclax (APG-1252; NSC835773), dasminapant (APG-1387;NSC834197), TAK-243 (NSC785004), copanlisib (NSC809693), olaparib (NSC753686), talazoparib (NSC767125), cobimetinib (NSC 768068), eltanexor (KPT-8602, NSC 794443), abemaciclib (NSC 768073), sotorasib (NSC818433), adagrasib (NSC 831453), MRTX-1133 (NSC 836407), Iadademestat (ORY1001, NSC 806812), and RMC-4630 (NSC839698), were obtained from the NCI Developmental Therapeutics Program Chemical Repository. The FDA-approved anticancer drug set is available from the Developmental Therapeutics Program at https://dtp.cancer.gov/organization/dscb/obtaining/available plates.htm. […] The stock solutions were prepared in dimethyl sulfoxide (DMSO, Sigma-Aldrich, St. Louis, MO, cat. D2650) at 800-fold the tested concentration and stored at -70 degrees C prior to their use. All drugs and investigational agents were tested over a range starting from a high concentration at or near the clinical Cmax and decreasing in half-log increments. If the clinical Cmax for an agent had not been determined, the highest concentration tested was 10 microM.
The patient-derived cancer (PDC) cell lines include five colon adenocarcinomas: 186277-243-T-J2-PDC, 616215-338-R-J1-PDC, 439559-082-T-J2-PDC, 463943-066-T-J2-PDC, and 519858-162-T-J1-PDC; three pancreatic carcinomas: 323965-272-R-J2-PDC, 521955-158-R6-J3-PDC, and 521955-158-R2-J5-PDC; two uterine sarcomas: 327498-152-R-J2-PDC and 993429-296-R-J1-PDC; two rhabdomyosarcomas: 755483-174-R-J1-PDC and 772245-204-R-J1-PDC; two soft tissue sarcomas: 126254-015-R-J1-PDC and 494315-158-R-J1-PDC; two malignant fibrous histiocytomas: 317291-083-R-J1-PDC and 596521-263-R-J1-PDC; two breast carcinomas: 171881-019-R-J1-PDC and 885512-296-R-J2-PDC; and one ovarian carcinoma: 6556581-035-R-J-PDC were obtained from the NCI PDMR, (https://pdmr.cancer.gov). The established cell lines HSSY-2 synovial sarcoma (RRID:CVCL 8719), SYO-1 synovial sarcoma (RRID:CVCL_7146), MPNST malignant peripheral neural sheath tumor were obtained from the Sloan Kettering Institute. […]

Certain results were filed several times, with different values. They are shown here; other results are not. There may be further records. Values given together are repeats in other runs, samples, wells, individuals or studies. Signs of the kind (2×) stand for listed records that agree.
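Note: compound exposure lasted 7 days starting three days after spheroid seeding; 100% = DMSO vehicle control wells with viability set relative to vehicle.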

`Cc1c(S(C)(=O)=O)c(-c2cc(F)cc(N3CCN(c4ccc(NS(=O)(=O)c5ccc(NC(CCN6CCC(C(=O)OCCCP(=O)(O)O)CC6)CSc6ccccc6)c(S(=O)(=O)C(F)(F)F)c5)cc4)CC3)c2)c(-c2ccc(Cl)cc2)n1C(C)C` (stereo not given): under “compound alone 1 µM”, the viability, T/C is reported as 109, 76.2, 80.5, 92.3, 75.2, 82.4, 79.2%.

Take `C=C(F)C(=O)N1CCN(c2nc(OCC3CCCN3C)nc3c2CCN(c2cccc4cccc(Cl)c24)C3)CC1CC#N` (stereo not given): for the setting “compound alone 10 µM”, the viability, T/C is recorded as 32.8%, 21.9%, 2.26%.

With `CNC(C)C(=O)NC1CN(S(=O)(=O)c2cccc(S(=O)(=O)N3CCC4CCC(C(=O)NC(c5ccccc5)c5ccccc5)N4C(=O)C(NC(=O)C(C)NC)C3)c2)CCC2CCC(C(=O)NC(c3ccccc3)c3ccccc3)N2C1=O` (stereo not given), the viability, T/C is, setting by setting: (compound alone 0.00316 µM) 108 (2×), 104, 54.1, 107 (2×), 94.3, 110, 117%; (compound alone 0.0316 µM) 106, 90.4, 100, 117, 113 (2×), 107, 103, 98.8%; (compound alone 1 µM) 104, 58.6, 90.2, 92.9, 109, 89.3, 101, 89.6, 92.8%.

Source of the values: PubChem BioAssay AID1963425 (Molecular Pharmacology Branch, DTP, NCI, 2024).
